{
  "source": "the supplement of paper PMC8728848",
  "binders": {"B1": {"name": "PX14375C-bth-509-28-509 (Bacteroides thetaiotaomicron) (protein)", "chain": "RSPQGQFTEDDNPNALVNGKIYNVYTMMRSFDITAGTPAIAIHYLRSEDSEKGSIPSDGSDVAEMYDDFLYTPTNGLLGSYWGKNYAIIYQCNDILDAIAEKETAGQTETEDIINKGEASFFRAYCYFNLVRAFGEVPLVTYKINDASEANIPKTTADKIYEQIDTDLKTAEESLPETWSTEYTGRLTWGAARSLHARTYMMRSDWDNMYKASTDVINKGLYNLKTPYNEIFTDDGENSGGSIFELQCTATAALPQSDVIGSQFCEVQGVRGAGQWDLGWGWHMATQLMADAYETGDPRKNATLLYFRKTDDEPITPENTNEPYGESPISPAMGAYFNKKAYTDPALRKEYTNKGFWVNIRLIRYSDVVLMAAEAANEKNIPGEAVDYLEMVRARARGTNTNILPKITTNDQGELREAIRHERRVELGLEPDRFYDLVRWGIASEVLHAAGKVNYQDKNALLPLPQSEIDKSKGVLVQNPDY"}},
  "test_in_all_cases": "glycan array binding signal (z-score within array); higher = stronger binding",
  "details_in_all_cases": "glycan notation: IUPAC condensed, linker removed",
  "key": {"[1]": {"molecular_target": "GlcNAc(b1-3)Gal(b1-4)GlcNAc(b1-3)Gal(b1-4)GlcNAc(b1-3)GalNAc", "method_in_brief": "(§1)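 The Consortium for Functional Glycomics database supplied 3228 glycan arrays, of which those lacking an available protein sequence were dropped. The binding signal, a within-array Z-score, was averaged across arrays of the same protein sequence and across linkers. Negative scores can be read as non-binding.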"}, "[2]": {"molecular_target": "GlcNAc(b1-3)Gal(b1-4)GlcNAc(b1-3)GalNAc", "method_in_brief": "as §1"}, "[3]": {"molecular_target": "GlcNAc(b1-3)Gal(b1-4)GlcNAc(b1-3)[GlcNAc(b1-3)Gal(b1-4)GlcNAc(b1-3)]GalNAc", "method_in_brief": "as §1"}, "[4]": {"molecular_target": "GlcNAc(b1-3)Gal(b1-4)GlcNAc(b1-6)[Gal(b1-3)]GalNAc", "method_in_brief": "as §1"}, "[5]": {"molecular_target": "GlcNAc(b1-3)Gal(b1-4)GlcNAc(b1-6)[GlcNAc(b1-3)Gal(b1-3)]GalNAc", "method_in_brief": "as §1"}, "[6]": {"molecular_target": "GlcNAc(b1-3)Gal(b1-4)GlcNAc(b1-6)[GlcNAc(b1-3)]Gal(b1-4)GlcNAc", "method_in_brief": "as §1"}, "[7]": {"molecular_target": "GlcNAc(b1-3)GalNAc", "method_in_brief": "as §1"}, "[8]": {"molecular_target": "GlcNAc(b1-3)Man", "method_in_brief": "as §1"}, "[9]": {"molecular_target": "GlcNAc(b1-3)[GlcNAc(b1-4)][GlcNAc(b1-6)]GlcNAc", "method_in_brief": "as §1"}, "[10]": {"molecular_target": "GlcNAc(b1-3)[GlcNAc(b1-6)]Gal(b1-4)GlcNAc", "method_in_brief": "as §1"}, "[11]": {"molecular_target": "GlcNAc(b1-3)[GlcNAc(b1-6)]GalNAc", "method_in_brief": "as §1"}, "[12]": {"molecular_target": "GlcNAc(b1-4)Gal(b1-4)GlcNAc", "method_in_brief": "as §1"}, "[13]": {"molecular_target": "GlcNAc(b1-4)GlcNAc", "method_in_brief": "as §1"}, "[14]": {"molecular_target": "GlcNAc(b1-4)GlcNAc(b1-4)GlcNAc", "method_in_brief": "as §1"}, "[15]": {"molecular_target": "GlcNAc(b1-4)GlcNAc(b1-4)GlcNAc(b1-4)GlcNAc(b1-4)GlcNAc", "method_in_brief": "as §1"}, "[16]": {"molecular_target": "GlcNAc(b1-4)GlcNAc(b1-4)GlcNAc(b1-4)GlcNAc(b1-4)GlcNAc(b1-4)GlcNAc", "method_in_brief": "as §1"}, "[17]": {"molecular_target": "GlcNAc(b1-4)[GlcNAc(b1-6)]GalNAc", "method_in_brief": "as §1"}, "[18]": {"molecular_target": "GlcNAc(b1-6)Gal(b1-4)GlcNAc", "method_in_brief": "as §1"}, "[19]": {"molecular_target": "GlcNAc(b1-6)GalNAc", "method_in_brief": "as §1"}, "[20]": {"molecular_target": "GlcNAc6S(b1-3)Gal(b1-4)GlcNAc", "method_in_brief": "as §1"}, "[21]": {"molecular_target": "Kdn(a2-3)Gal(b1-3)GalNAc", "method_in_brief": "as §1"}, "[22]": {"molecular_target": "Kdn(a2-3)Gal(b1-3)GlcNAc", "method_in_brief": "as §1"}, "[23]": {"molecular_target": "Kdn(a2-3)Gal(b1-4)Glc", "method_in_brief": "as §1"}, "[24]": {"molecular_target": "Kdn(a2-3)Gal(b1-4)GlcNAc", "method_in_brief": "as §1"}, "[25]": {"molecular_target": "Kdn(a2-3)Gal(b1-4)[Fuc(a1-3)]GlcNAc", "method_in_brief": "as §1"}, "[26]": {"molecular_target": "Kdn(a2-6)Gal(b1-4)GlcNAc", "method_in_brief": "as §1"}, "[27]": {"molecular_target": "Man(a1-2)Man(a1-2)Man(a1-3)Man", "method_in_brief": "as §1"}, "[28]": {"molecular_target": "Man(a1-2)Man(a1-2)Man(a1-6)[Man(a1-3)]Man", "method_in_brief": "as §1"}, "[29]": {"molecular_target": "Man(a1-2)Man(a1-3)Man", "method_in_brief": "as §1"}, "[30]": {"molecular_target": "Man(a1-2)Man(a1-3)[Man(a1-2)Man(a1-6)]Man", "method_in_brief": "as §1"}, "[31]": {"molecular_target": "Man(a1-2)Man(a1-3)[Man(a1-2)Man(a1-6)]Man(a1-6)[Man(a1-2)Man(a1-2)Man(a1-3)]Man", "method_in_brief": "as §1"}, "[32]": {"molecular_target": "Man(a1-2)Man(a1-3)[Man(a1-2)Man(a1-6)]Man(a1-6)[Man(a1-2)Man(a1-2)Man(a1-3)]Man(b1-4)GlcNAc(b1-4)GlcNAc", "method_in_brief": "as §1"}, "[33]": {"molecular_target": "Man(a1-2)Man(a1-3)[Man(a1-6)]Man(a1-6)[Man(a1-2)Man(a1-3)]Man(b1-4)GlcNAc(b1-4)GlcNAc", "method_in_brief": "as §1"}, "[34]": {"molecular_target": "Man(a1-2)Man(a1-6)[Man(a1-3)]Man(a1-6)[Man(a1-2)Man(a1-2)Man(a1-3)]Man", "method_in_brief": "as §1"}, "[35]": {"molecular_target": "Man(a1-2)Man(a1-6)[Man(a1-3)]Man(a1-6)[Man(a1-2)Man(a1-2)Man(a1-3)]Man(b1-4)GlcNAc(b1-4)GlcNAc", "method_in_brief": "as §1"}, "[36]": {"molecular_target": "Man(a1-3)[Man(a1-6)]Man", "method_in_brief": "as §1"}, "[37]": {"molecular_target": "Man(a1-3)[Man(a1-6)]Man(a1-6)[Man(a1-2)Man(a1-3)]Man(b1-4)GlcNAc(b1-4)GlcNAc", "method_in_brief": "as §1"}},
  "note": "The list shows a part of the results.",
  "data": [
    {"binder": "B1", "values": [
      {"measurement": "glycan array binding signal (z-score)", "setting": "[1]", "result": -0.343},
      {"measurement": "glycan array binding signal (z-score)", "setting": "[2]", "result": -0.187},
      {"measurement": "glycan array binding signal (z-score)", "setting": "[3]", "result": 0.003},
      {"measurement": "glycan array binding signal (z-score)", "setting": "[4]", "result": -0.076},
      {"measurement": "glycan array binding signal (z-score)", "setting": "[5]", "result": 0.151},
      {"measurement": "glycan array binding signal (z-score)", "setting": "[6]", "result": -0.159},
      {"measurement": "glycan array binding signal (z-score)", "setting": "[7]", "result": -0.251},
      {"measurement": "glycan array binding signal (z-score)", "setting": "[8]", "result": -0.251},
      {"measurement": "glycan array binding signal (z-score)", "setting": "[9]", "result": -0.414},
      {"measurement": "glycan array binding signal (z-score)", "setting": "[10]", "result": -0.072},
      {"measurement": "glycan array binding signal (z-score)", "setting": "[11]", "result": -0.462},
      {"measurement": "glycan array binding signal (z-score)", "setting": "[12]", "result": -0.275},
      {"measurement": "glycan array binding signal (z-score)", "setting": "[13]", "result": -0.223},
      {"measurement": "glycan array binding signal (z-score)", "setting": "[14]", "result": -0.393},
      {"measurement": "glycan array binding signal (z-score)", "setting": "[15]", "result": 0.127},
      {"measurement": "glycan array binding signal (z-score)", "setting": "[16]", "result": -0.291},
      {"measurement": "glycan array binding signal (z-score)", "setting": "[17]", "result": -0.315},
      {"measurement": "glycan array binding signal (z-score)", "setting": "[18]", "result": -0.285},
      {"measurement": "glycan array binding signal (z-score)", "setting": "[19]", "result": -0.359},
      {"measurement": "glycan array binding signal (z-score)", "setting": "[20]", "result": 2.16},
      {"measurement": "glycan array binding signal (z-score)", "setting": "[21]", "result": -0.314},
      {"measurement": "glycan array binding signal (z-score)", "setting": "[22]", "result": 0.209},
      {"measurement": "glycan array binding signal (z-score)", "setting": "[23]", "result": -0.141},
      {"measurement": "glycan array binding signal (z-score)", "setting": "[24]", "result": -0.19},
      {"measurement": "glycan array binding signal (z-score)", "setting": "[25]", "result": -0.411},
      {"measurement": "glycan array binding signal (z-score)", "setting": "[26]", "result": -0.383},
      {"measurement": "glycan array binding signal (z-score)", "setting": "[27]", "result": -0.321},
      {"measurement": "glycan array binding signal (z-score)", "setting": "[28]", "result": -0.324},
      {"measurement": "glycan array binding signal (z-score)", "setting": "[29]", "result": -0.338},
      {"measurement": "glycan array binding signal (z-score)", "setting": "[30]", "result": -0.344},
      {"measurement": "glycan array binding signal (z-score)", "setting": "[31]", "result": 0.053},
      {"measurement": "glycan array binding signal (z-score)", "setting": "[32]", "result": -0.232},
      {"measurement": "glycan array binding signal (z-score)", "setting": "[33]", "result": -0.274},
      {"measurement": "glycan array binding signal (z-score)", "setting": "[34]", "result": -0.001},
      {"measurement": "glycan array binding signal (z-score)", "setting": "[35]", "result": -0.383},
      {"measurement": "glycan array binding signal (z-score)", "setting": "[36]", "result": -0.167},
      {"measurement": "glycan array binding signal (z-score)", "setting": "[37]", "result": -0.163}
    ]}
  ]
}
